# Assay results from article PMC4336329 (PLoS ONE, 2015).
# The campaign covered roughly 310,000 compounds. About 2,200 (0.71%) showed an effect of 50% or more. The effect is printed as a negative number. The list shows a part of the results.
# Biological target: human ether-à-go-go-related gene (hERG) potassium channel (human, UniProt Q12809)
# Assay: primary screen, population patch clamp on CHO cells stably expressing hERG
# Chain of human ether-à-go-go-related gene (hERG) potassium channel (Q12809 whole entry, looked up): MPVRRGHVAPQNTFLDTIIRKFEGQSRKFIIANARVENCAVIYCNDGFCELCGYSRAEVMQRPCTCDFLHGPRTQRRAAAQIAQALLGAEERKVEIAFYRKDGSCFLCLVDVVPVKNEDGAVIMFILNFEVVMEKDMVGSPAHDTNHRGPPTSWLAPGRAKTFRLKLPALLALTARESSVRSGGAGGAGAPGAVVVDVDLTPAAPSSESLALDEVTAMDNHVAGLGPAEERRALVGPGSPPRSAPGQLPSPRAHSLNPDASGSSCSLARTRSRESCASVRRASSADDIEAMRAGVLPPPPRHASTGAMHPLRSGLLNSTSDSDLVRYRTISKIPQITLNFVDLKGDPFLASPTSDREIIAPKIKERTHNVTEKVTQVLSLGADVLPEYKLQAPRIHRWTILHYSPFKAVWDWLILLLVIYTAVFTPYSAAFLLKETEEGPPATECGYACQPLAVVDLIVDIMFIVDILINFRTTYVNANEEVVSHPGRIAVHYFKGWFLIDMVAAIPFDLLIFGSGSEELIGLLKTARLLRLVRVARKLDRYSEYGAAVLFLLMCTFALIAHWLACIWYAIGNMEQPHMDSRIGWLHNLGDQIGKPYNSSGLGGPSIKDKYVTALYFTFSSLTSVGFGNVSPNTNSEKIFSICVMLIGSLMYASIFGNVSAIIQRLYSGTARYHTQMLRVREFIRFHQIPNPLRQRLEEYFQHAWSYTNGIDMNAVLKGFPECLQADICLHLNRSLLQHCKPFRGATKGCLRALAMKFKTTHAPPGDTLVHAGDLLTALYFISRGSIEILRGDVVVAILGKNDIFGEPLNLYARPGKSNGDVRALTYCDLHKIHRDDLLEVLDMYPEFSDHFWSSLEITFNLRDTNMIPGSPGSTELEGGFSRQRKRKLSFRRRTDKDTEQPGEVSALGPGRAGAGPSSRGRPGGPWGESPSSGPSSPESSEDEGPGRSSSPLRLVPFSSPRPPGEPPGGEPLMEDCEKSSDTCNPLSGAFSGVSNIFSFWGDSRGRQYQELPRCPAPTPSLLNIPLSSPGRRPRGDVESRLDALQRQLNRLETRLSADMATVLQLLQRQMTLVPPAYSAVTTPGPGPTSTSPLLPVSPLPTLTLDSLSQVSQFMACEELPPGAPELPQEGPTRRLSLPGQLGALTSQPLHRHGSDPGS
row,SMILES,"hERG current change (%, negative = inhibition) at 1uM"
1,Cc1cc(C)n(CCCNC(=O)c2ccc(C)o2)n1,10.4%
2,CC(C)(C)SCCNC(=O)CN(c1ccc(F)cc1)S(C)(=O)=O,8.14%
3,CC(=O)/C(N=Nc1nc2c([nH]1)c(=O)n(C)c(=O)n2C)=C(\C)O,11.3%
4,CCn1ncc(CNC(=O)CCSc2nc(-c3ccco3)cc(C(F)(F)F)n2)c1C,5.52%
5,COc1cc(OC)cc(C(=O)NCCn2ccc3ccccc32)c1,5.82%
6,CC(C(=O)N1CCc2ccccc21)N1CCN(S(=O)(=O)c2ccc(C(F)(F)F)cc2)CC1 (centres unmarked),7.76%
7,COc1ccc(OC)c(NC(=O)CN2C(=O)C(=O)N(Cc3ccccc3)C2=O)c1,7.21%
8,CCN(C(=O)C(C)Sc1ccc(S(=O)(=O)N2CCN(C)CC2)cn1)c1ccccc1 (centres unmarked),-3.06%
9,N=c1c(S(=O)(=O)c2ccccc2)cc2c(=O)n3ccccc3nc2n1C1CCCC1,8.93%
10,S=C(NCc1ccco1)N1CCN(c2cccc(Cl)c2)CC1,10.3%
11,N#CCCn1nc(-c2ccccc2)c2ccccc2c1=O,-1.49%
12,COc1cc(OC)c(NC(=O)c2ccco2)cc1Cl,-3.85%
13,O=C(COC(=O)C1CCN(S(=O)(=O)c2ccc3c(c2)OCCO3)CC1)Nc1cccc2ccccc12,23.3%
14,COc1ccc(-c2nn(-c3ccccc3)cc2/C=N/NC(=O)c2cccc(S(=O)(=O)Nc3ccccc3OC)c2)cc1,10.9%
15,COc1ccc(OCC(=O)N2CCc3c([nH]c4ccccc34)C2c2ccccn2)cc1 (centres unmarked),23.2%
16,Cc1cc(C(=O)COC(=O)c2cccs2)c(C)n1-c1c(C)n(C)n(-c2ccccc2)c1=O,13.2%
17,O=C(CN1C(=O)c2ccccc2C1=O)Nc1ccccc1,6.76%
18,O=C(Nc1ccc(N2CCOCC2)cc1)C1CCCN(S(=O)(=O)c2ccccc2)C1 (centres unmarked),10.1%
19,COc1ccccc1C(=O)Nc1nnc(S(=O)(=O)N2CCC(C)CC2)s1,12.4%
20,CCN(CCO)C(=S)Nc1cc(S(=O)(=O)N(C)C)ccc1C,9.03%
21,N#CCc1ccc(OC(=O)c2cccnc2Cl)cc1,9.48%
22,OCc1ccc2c(c1)c(-c1ccc3c(c1)OCCO3)c(-c1ccccc1)n2-c1ccccc1,8.01%
23,O=C(c1cccnc1Nc1ccc2c(c1)CCC2)N1CCOCC1,0.266%
24,O=C1c2ccccc2CCCC12N=NCC2c1cccc2ccccc12 (centres unmarked),13.6%
25,CCCCN(Cc1cc2ccccc2[nH]c1=O)S(=O)(=O)c1ccc(C)cc1,-3.85%
26,CCc1nc(NCc2ccco2)c2oc3ccccc3c2n1.Cl,6.18%
27,NC(=O)c1ccc(CN2CCC(Cc3ccccc3)CC2)cc1,-18.2%

row,SMILES,"hERG current change (%, negative = inhibition) at 1uM"
1,Cc1cc(C)c(C)c(S(=O)(=O)NCc2ccc(C(=O)N3CCOCC3)cc2)c1C,23.1%
2,Cl.O=C(Nc1nc2ccccc2s1)c1ccc2c(c1)OCO2,-9.95%
3,O=C(Cn1ccc2ccccc2c1=O)NCCC(=O)N1CCN(C(=O)c2ccco2)CC1,0.326%
4,Cc1cccc(C(=O)NC2CC3CCCC(C2)N3Cc2ccccc2)c1 (centres unmarked),-6.63%
5,CS(=O)(=O)N(CC(=O)N1CCOCC1)Cc1ccc(Cl)cc1,8.23%
6,Clc1ccc(C[n+]2c(-c3ccccc3)cc(-c3ccccc3)cc2-c2ccccc2)cc1.[O-][Cl+3]([O-])([O-])[O-],-25.5%
7,CCOC(=O)c1sc(=S)n(-c2ccccc2)c1C,13.5%
8,Cc1ccc2nc(C)cc(C(=O)OCC(=O)c3ccc(Cl)c([N+](=O)[O-])c3)c2c1,7%
9,CCN(CC)S(=O)(=O)c1ccc(C(=O)OCC(=O)Nc2ccc(-c3nc4ccc(C)cc4s3)cc2)cc1,-1.58%
10,O=C(c1cnn2c1NC(c1ccco1)CC2C(F)(F)F)N1CCN(c2cccc(Cl)c2)CC1 (centres unmarked),-4.04%
11,Cn1c(/C=C/c2cccc([N+](=O)[O-])c2)c([N+](=O)[O-])c(=O)n(C)c1=O,4.05%
12,COc1ccc(CSc2nnnn2Cc2ccccc2)cc1OC,-6.92%
13,CCOC(=O)c1c(C)[nH]c(C(=O)OCCOc2ccc(Cl)cc2)c1C,11.2%
14,O=C(CSCc1ccc(Cl)cc1)N/N=C/c1ccc(Cl)cc1Cl,5.12%
15,O=C(Nc1ccccc1)c1cccnc1Nc1ccccc1,1.67%
16,O=C(CSc1nc(Cc2ccccc2)nc2ccccc12)c1ccc2c(c1)OCCO2,-0.271%
17,COc1cc(C(=O)c2cocc2C(=O)c2ccc3c(c2)OCO3)cc(OC)c1OC,7.35%
18,O=c1ccn(-c2cccc(C(F)(F)F)c2)nc1-c1ccn(-c2cccc(Cl)c2)n1,4.89%
19,O=C1CN(C(=O)c2ccccc2F)C(c2ccc(F)cc2)c2cc(F)ccc2N1 (centres unmarked),11.9%
20,CN(C)c1oc(-c2cccs2)nc1C#N,9.3%
21,CCC(=NCc1cccnc1)c1c(O)n(Cc2ccccc2)c(=O)[nH]c1=O,-18.9%
22,O=C(OCC(=O)N(CCc1ccccc1)Cc1ccccc1)c1ccccc1[N+](=O)[O-],15.8%
23,CCC(C)C1NC(=O)C(C(C)=O)=C1O (centres unmarked),2.47%
24,COc1ccc(N2CCN(CC(O)COc3ccc(C)c(C)c3)CC2)cc1.Cl (centres unmarked),-5.14%
25,O=C(CCN1CCN(c2ccc([N+](=O)[O-])cc2)CC1)c1ccc(Cl)cc1,-40.5%
26,O=C(O)CCCC(=O)Nc1cccc2cccnc12,11.4%
